# Whole data set: some 33,000 sequences, median “E-score (-0.5 to 0.5)” near -0.032, cut for the highest 2% near 0.36. The list shows a part of the results.
# Target: T1, Sko1 (UniProt Q02100)
# T1 sequence: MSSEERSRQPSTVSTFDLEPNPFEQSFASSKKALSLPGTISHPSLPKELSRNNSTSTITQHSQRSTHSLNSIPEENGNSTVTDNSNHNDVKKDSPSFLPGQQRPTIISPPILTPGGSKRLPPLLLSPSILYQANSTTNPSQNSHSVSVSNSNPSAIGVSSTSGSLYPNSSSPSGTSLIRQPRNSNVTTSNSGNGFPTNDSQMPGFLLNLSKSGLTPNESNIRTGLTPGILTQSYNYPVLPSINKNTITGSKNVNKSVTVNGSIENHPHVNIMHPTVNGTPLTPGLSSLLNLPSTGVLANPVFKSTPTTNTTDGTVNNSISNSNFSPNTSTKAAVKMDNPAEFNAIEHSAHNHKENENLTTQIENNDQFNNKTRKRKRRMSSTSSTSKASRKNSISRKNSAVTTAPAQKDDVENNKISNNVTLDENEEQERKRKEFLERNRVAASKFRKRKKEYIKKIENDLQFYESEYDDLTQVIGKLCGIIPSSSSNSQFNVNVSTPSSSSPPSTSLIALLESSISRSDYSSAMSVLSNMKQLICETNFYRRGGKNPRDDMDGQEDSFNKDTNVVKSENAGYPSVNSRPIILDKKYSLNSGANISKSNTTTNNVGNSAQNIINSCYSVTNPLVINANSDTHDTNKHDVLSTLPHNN
# Experiment: PBM E-score (8-mer binding enrichment) (E-score (-0.5 to 0.5)); higher = stronger / more preferred TF binding; most listed sequences are background and not binding sites
# Conditions: protein concentration: 200 nM; construct: GST-full length
# In short: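 Each ungapped eight-base word and its reverse complement, pooled, received an E-score from the Universal PBM Analysis Suite. Underlying scans, normalised with masliner, recorded fluorescent anti-GST bound to GST-tagged yeast transcription factors. These were applied at about 100-200 nM to universal all-10-mer Agilent arrays double-stranded by primer extension.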
row,Sequence,PBM E-score
1,CAACTGAG,-0.101
2,GACAACCA,-0.0284
3,CGGTCAAC,-0.144
4,TAGCGCCA,-0.109
5,ACTTCAGA,0.00774
6,AGACGCCG,-0.168
7,GAAGCCGA,-0.167
8,TAGGGATA,-0.0567
9,GGCATCGA,-0.151
10,CGGCCCAC,-0.176
11,CCCTCCGC,-0.279
12,AATACACA,0.237
13,ATGTGGAA,0.14
14,GGAATAAC,-0.0143
15,CTGGTTAA,-0.126
16,CCTCTTAG,-0.0847
17,CTCGTACA,-0.00741
18,TAGTTTGA,0.2
19,TATTCACA,0.212
20,GCTGGGCC,-0.247
21,CGGGAATC,-0.26
22,CACTCGCG,-0.0604
23,GAGAAACC,-0.146
24,ACCTATGG,-0.195
25,CTATCCCA,-0.083

row,Sequence,PBM E-score
1,AGACGAGG,-0.3
2,AGTAATTA,0.263
3,CCTCCTTA,-0.201
4,ACTGTTCG,0.0219
5,ATAACGCC,0.1
6,ATCGCGTA,0.326
7,TAAACGTA,0.42
8,AACTCTTC,0.0128
9,ACGTGTGA,0.401
10,AACCGGTG,-0.169
11,TCACGTAA,0.472
12,GTCGATTA,0.186
13,CGGCCAAA,-0.0731
14,CACCGCTA,-0.192
15,ATTGTTAA,0.0942
16,CTGTTAAG,0.0532
17,AACTGTGT,-0.126
18,GCTTGACA,-0.0945
19,AGCAAGCA,-0.21
20,ACGGCCAT,-0.394
21,GCCCCCGC,-0.426
22,GACGCTGA,0.0227
23,TCCATGAA,0.0481
24,CGAGCAAC,0.026
25,GGTTACCA,-0.132

row,Sequence,PBM E-score
1,GTAGCGGA,-0.0973
2,ATTGGCAA,0.134
3,CGTCGGGA,0.0566
4,CTGGTCGC,-0.186
5,ACGCGGAT,0.145
6,ATTTCCCG,0.0255
7,ATCACGCA,0.308
8,AAAGCGCT,0.197
9,TAGAGGAA,-0.104
10,AAAGGTCT,-0.187
11,AGAGTGTA,-0.174
12,CCTGTTAA,-0.00046
13,ATAGAACA,0.0877
14,CGTCACTA,0.445
15,CCAATCAG,-0.279
16,AGCGGCAG,-0.147
17,ATGTACTA,-0.00357
18,CCGTGTTA,-0.0886
19,ACCTTTAG,-0.225
20,ACTAAGGC,-0.109
21,GCACGGCA,-0.072
22,AAATTCCA,0.0963
23,TCAGAGCA,-0.0464
24,GGGAGGTA,-0.198
25,ATATGATA,0.281

row,Sequence,PBM E-score
1,ACGCTGTG,0.239
2,GACTTAAC,0.0659
3,ACAACAAC,0.124
4,ACTCAAAT,0.235
5,AATTAATA,0.338
6,CGCTCCAG,-0.0473
7,GAGTGCGC,-0.0406
8,ATAATATA,0.268
9,ATCACGTG,0.411
10,AATCAAGC,0.103
11,AGACACCC,-0.159
12,CAACTTAC,0.0405
13,AGGTGTCG,-0.132
14,CTGGCCCA,-0.288
15,AGCCGCTA,-0.187
16,CATCAGGA,0.0868
17,CGCATGAC,0.34
18,TCGTGCAA,0.172
19,CCGGCTTC,-0.267
20,GAGGGTGC,-0.294
21,AAGTTGAT,0.125
22,CATAATCA,0.216
23,CCTCTCTC,-0.257
24,AGTGTCTG,-0.169
25,ACTGATGC,-0.197

row,Sequence,PBM E-score
1,ACCCGGTC,-0.324
2,ACTTATTC,0.0593
3,AAGCTTCG,-0.166
4,TAGGACCA,-0.122
5,CGTGCGAC,0.0911
6,CATCCAAA,0.168
7,AGTGGCAG,-0.195
8,ATTATATG,0.176
9,GGTTCTCA,-0.176
10,CACTTCGG,0.0598
11,CTCAATGA,0.195
12,CCCCGTAG,-0.2
13,TAACATTA,0.187
14,AGCAAAGC,0.0158
15,CCTCACGA,-0.182
16,TGCGAAAA,0.171
17,ATAATTCC,0.143
18,GTCCGGGA,-0.0399
19,ATCTCACA,0.0103
20,CCAATATC,-0.188
21,ACCTACCC,-0.289
22,AAGAGAGG,-0.17
23,GAAAAGTC,0.0461
24,AGAATGCT,0.00749
25,TACATGGA,-0.0702

row,Sequence,PBM E-score
1,AAATGTTG,0.103
2,CCAGCCAC,-0.255
3,ATTATTGA,0.109
4,ATGAAACG,0.0866
5,GAGCCTAC,-0.0608
6,CCCCGTAA,0.0319
7,CACAGGAC,-0.0874
8,CAAGCGCC,-0.262
9,AGGGTTGC,-0.0198
10,AGTAGTTC,0.107
11,GTCGGGCA,-0.121
12,ACCTAGAG,-0.196
13,ACTTTAGG,-0.0354
14,AAATCGAT,0.134
15,CTTTGCAA,-0.117
16,GACTCCGC,-0.206
17,CCTCTCAG,-0.389
18,GGCGCTAA,-0.178
19,AGACGTTG,0.111
20,ACCGGAAC,-0.175
21,ACCCGTTG,-0.33
22,CACCGTGC,-0.0312
23,CCCGGACC,-0.222
24,CCGCGGAA,-0.228
25,CTACGAAA,0.214

row,Sequence,PBM E-score
1,CATAAAGA,0.279
2,AGCACCAC,-0.158
3,CTCTGACA,-0.0282
4,AATACCGT,0.136
5,GCCGTGCC,-0.309
6,TCAGTACA,-0.0302
7,ATGTTCCC,-0.243
8,AACTGCAA,-0.0572
9,CCCCGTCA,0.0543
10,ACCCCTAG,-0.227
11,ACGTATAA,0.457
12,ATTCCAGC,-0.137
13,CGGATGCA,-0.246
14,GGTGAGAC,-0.149
15,GAATTTGC,0.06
16,AGTCTTCC,-0.203
17,ACTAAAGT,0.0923
18,AGGAAAGC,-0.187
19,CGACAATC,-0.0122
20,GAACTCAC,-0.00045
21,CTTGAAGC,-0.104
22,ATAGGCGC,-0.208
23,ACTGACCC,-0.242
24,AGTAGTGG,-0.0292
25,CGGGTCTA,-0.0366

row,Sequence,PBM E-score
1,AATTAGAA,0.133
2,AGGCGGGC,-0.11
3,ACATGTCA,0.294
4,ACCCGTAC,-0.107
5,ATAAAGGC,-0.124
6,AGAACTCA,-0.0391
7,AGTGATCA,0.0281
8,CCAAACCA,-0.0285
9,GGCGCACC,-0.36
10,AGACGTAT,0.441
11,AACTGCAG,-0.163
12,GTTATTAA,0.206
13,GCTGCAGA,-0.132
14,GACACTTA,-0.00276
15,AAACACTT,0.0996
16,ATGTCAAA,0.244
17,TAGGATCA,0.0401
18,AACGCGAG,0.0305
19,ACACGCAA,0.376
20,GCCCCGGA,-0.37
21,GCAACCCA,0.0272
22,AGTTTGAT,-0.0174
23,CAACCCCA,-0.0938
24,CAAAGTGA,0.0251
25,CAGACACC,-0.178

row,Sequence,PBM E-score
1,ACGATACG,0.302
2,CGGTCTCC,-0.293
3,CGAAGGGA,-0.0711
4,GGCAACGA,-0.0624
5,GAATCGGA,0.0357
6,CCCGACCG,-0.326
7,CTAGTCCA,-0.241
8,CTTTTAAA,0.19
9,CCGCAGCA,-0.216
10,ATTACCTG,0.067
11,AAGGCCGT,-0.196
12,ACCGCATG,0.136
13,AGTGTTAC,0.165
14,AGGCGCCG,-0.0266
15,ACGCTTGA,0.162
16,AAATGGCA,0.0596
17,GTAGTATA,0.148
18,AAGGCTTA,-0.102
19,CATGCTCG,-0.134

# — the supplement of paper PMC3334620
